Assay results from ChEMBL document CHEMBL1157539, “Thousands of chemical starting points for antimalarial lead identification” (Nature, 2010).
The full ranking holds about 13,000 compounds; the median of “IFI” is about 4, and the highest 2% start at about 17. This is one part of the list.

Assay: GSK_TCMDC: Inhibition Frequency Index (IFI). The number of non-kinase HTS assays where a compound showed > 50 % inhibition, expressed as a percentage of the number of such assays in which the compound was tested (-0 is zero)
Type: functional

Row | SMILES | IFI
1 | COc1ccc(Nc2cc(C)nc(Nc3ccc(NC(C)=O)cc3)n2)cc1 | 5.88%
2 | CN(C)CCOc1ccc(NC(=O)NC(C)(C)c2nc(-c3ccc(Cl)c(O)c3)c(-c3ccncc3)[nH]2)cc1 | 2.21%
3 | N#Cc1ccc2c(c1)CCN(CCC1CCC(NC(=O)c3cc4cccc([N+](=O)[O-])c4[nH]3)CC1)C2 (stereo not drawn) | -0%
4 | Cc1ccc(NC(=O)c2ccc3nccnc3c2)cc1OC1CCN(Cc2ccc(F)cc2)CC1 | 1.64%
5 | COc1cccc(CNC(=O)c2cccc(-c3cccc(CN4CCC(N5CCCC5)CC4)c3)n2)c1 | 9.8%
6 | COc1ccc(-c2cccc(NC(=O)c3cccc(C#N)c3)c2)cc1CN1CCCC1 | 4%
7 | O=S(=O)(c1ccc(OCc2ccc(Cl)cc2)cc1)c1cc2c(cc1O)CCN(C1CCC1)CC2 | 7.52%
8 | CC(C)(C)c1ccc(-c2nnc(N)nc2N)cc1 | 0.78%
9 | COc1cccc(CCNCc2ccc(-c3cccc(CNC4CCCC4)c3)cc2)c1 | 2.78%
10 | Cc1[nH]c(C)c(-c2ccc(-c3cccc(Cl)c3)nc2)c(=O)c1Br | 1.82%
11 | O=C(Nc1ccc(Br)cc1)c1cc(Br)ccc1NS(=O)(=O)c1ccc(C(F)(F)F)cc1 | 25%
12 | Cc1cc(C)c(NC(=O)N[C@H]2CCN(CCCCCNC(=O)/C=C/c3ccc(Cl)c(Cl)c3)C2)c(C)c1 | 2.08%
13 | Cc1nc2nc(N)nc(N)c2c(C)c1Cc1ccccc1Br | 2.26%
14 | CN1C(C)(C)CC(NC(=O)c2ccc(-c3nc4cc(Cl)ccc4[nH]3)cc2)CC1(C)C | 0.71%
15 | O=C(/C=C/c1ccc(Cl)c(Cl)c1)NCCCCCN1CCC(CCCNC(=O)Nc2ccc(C(F)(F)F)cc2)CC1 | 8.57%
16 | CCC(Cc1ccccc1)c1cc(O)c(Cc2ccc(-c3ccccc3)cc2)c(=O)o1 (stereo not drawn) | 4.38%
17 | CN1CCN(c2cc3c(cc2Cl)CCN3C(=O)Cc2ccc(NC(=O)Nc3cccc4ccccc34)cc2)CC1 | 8.45%
18 | COc1ccc(C=C2SC(=O)N=C2Nc2ccccc2)c(OC)c1 | 4.11%
19 | Cc1cc(C2CCN(CCCCNC(=O)c3ccc(-c4ccc(C#N)cc4)cc3)CC2)c(C)cc1O | 3.67%
20 | Cn1cncc1CNCc1ccc(-c2cccc(-c3nc4ccccc4[nH]3)c2)cc1 | 2.91%

Row | SMILES | IFI
21 | O=C(N[C@H]1CCN(Cc2ccc(OCCCN3CCCCC3)cc2)C1)c1ccc2ccccc2c1 | 5.48%
22 | CCc1ccc(CN2CCC(NC(=O)c3ccc(-c4ccc(N(C)C)cc4)s3)CC2)cc1 | 12.3%
23 | CCc1cn(CCc2ccccc2)c2ccc(C(=O)N[C@@H](Cc3ccccc3)[C@H](O)CNC(C)(C)CCCC(C)C)cc12 | 8.7%
24 | COc1ccc2c(OC)c(CNCCCCCCNCc3ccc4cc(OC)ccc4c3OC)ccc2c1 | 11.3%
25 | O=C(CNCC1CCCCC1)Nc1cc(C(F)(F)F)ccc1Cl | 4.23%
26 | OCC(c1ccccc1)n1c(COc2ccc(Cl)cc2)nc2c(OCCCN3CCCCC3)cccc21 (stereo not drawn) | 3.67%
27 | O=C(NC1CCCCN(Cc2ccccc2O)C1)c1cccc(C(F)(F)F)c1 (stereo not drawn) | 2.05%
28 | O=C(Nc1ccc2c(c1)CN(Cc1ccc(N3CCCC3)o1)CCC2)c1ccoc1 | 2.5%
29 | CC(C)CN1C(=O)C(c2ccc(F)c(F)c2)=C(O)C1c1ccccc1 (stereo not drawn) | 0.69%
30 | CC(=O)Nc1cccc(Nc2nccc(Nc3ccc(Oc4ccccc4)cc3)n2)c1 | 4.96%
31 | CN(C)CCNC(=O)N1CCCN(c2ncnc3cc(-c4ccc(Cl)cc4)sc23)CC1 | 7.27%
32 | O=C(NCCCCN1CCC(c2ccc3c(c2OCC2CC2)CCCC3)CC1)c1ccc(NC(=O)c2ccc(Cl)cc2)cc1 | 5.07%
33 | COc1ccc(C2CC(c3cccs3)=NN2C(=O)CNc2cccc(C#N)c2)cc1OC (stereo not drawn) | -0%
34 | CCn1cc(-c2nc(-c3cc(OC)cc(OC)c3)no2)c(=O)c2ccccc21 | 4.35%
35 | CCCCc1ccc(-c2ccc3[nH]c(C)c(Br)c(=O)c3c2)cc1 | 0.89%
36 | O=C(/C=C/c1ccc(Cl)c(Cl)c1)NCCCCCN1CCC(NC(=O)Nc2ccc(Oc3ccccc3)cc2)C1 (stereo not drawn) | 11.3%
37 | Cc1nc(Nc2ccc(F)cc2)nc(N2CCc3ccccc3[C@@H]2C)c1C | 3.7%
38 | COc1ccc(-n2nc(C)c3c2NC(=O)CC3c2ccccc2OCc2ccccc2F)cc1 (stereo not drawn) | 5.17%
39 | Cc1cc(O)c(-c2ccc(Oc3ccc(F)cc3)cc2)c(C)n1 | -0%
40 | O=C(/C=C/c1ccc(Cl)c(Cl)c1)NCCCCCN1CCC(c2c[nH]c3cc(O)ccc23)CC1 | 4.96%

Row | SMILES | IFI
41 | C=CCc1cc(Cc2cnc(N)nc2N)c2ccc(C)nc2c1OC | 3.01%
42 | CCC(C)CNC(=O)CN1CN(c2ccccc2)C2(CCN(C(=O)c3ccc(Br)cc3)CC2)C1=O (stereo not drawn) | 3.33%
43 | Cc1ccc(O)cc1Nc1ccnc2cc(-c3ccncc3)ccc12 | 6.42%
44 | CN1CCN(c2ccc(-c3cc(-c4ccncc4)c(-c4ccc(Cl)c(O)c4)o3)cc2)CC1 | 9.09%
45 | Cc1ccccc1C1CCN(C2CCC(NC(=O)C3=Cc4cc(Cl)ccc4OC3)CC2)CC1 (stereo not drawn) | 9.84%
46 | Cc1cc(NC(=O)NCCN2CCC(NS(=O)(=O)c3ccccc3F)CC2)c2ccccc2n1 | 0.88%
47 | COc1ccc2c(N/N=C/c3ccc([N+](=O)[O-])cc3)ccnc2c1 | 1.44%
48 | CNCCNCc1cccc(-c2ccc(-c3nc4cccc(C)c4[nH]3)cc2)c1 | 9%
49 | Cc1cc2nc(-c3ccc(SCC(=O)Nc4ccc5c(c4)OCCO5)nc3)[nH]c2cc1C | 2.5%
50 | CC(C)C[C@@H](C(=O)N[C@H](C(=O)Nc1nccs1)C(C)(C)C)[C@H](CCC(F)(F)F)N(O)C=O | 1.46%
51 | C=CCc1cc(Br)ccc1OCCCON1C(N)=NC(N)=NC1(C)C | 6.72%
52 | COc1cccc(CNC(=O)c2ccnc(-c3cccc(CN(C)C4CCN(C)CC4)c3)c2)c1 | -0%
53 | CN1CCC(c2csc3ccc(NC(=O)Nc4ccc(-c5ccncc5)c5ccccc45)cc23)CC1 | 4.96%
54 | O=C(NC1CCN(Cc2ccccc2)CC1)c1cc(-c2ccncc2)c(-c2ccc(Cl)c(O)c2)o1 | 1.52%
55 | Cc1cc2ncn(-c3nccc(NCc4ccc(F)cc4)n3)c2cc1C | 0.78%
56 | CCCC1N=C(N)N=C(N)N1c1ccccc1 (stereo not drawn) | 0%
57 | OC1(Cc2ccccc2)CCN(Cc2cccc(-c3c[nH]c4nc(NC5CCCC5)ncc34)c2)CC1 | 12.5%
58 | N#Cc1ccc(-c2ccc(C(=O)NCCCCN3CCC(c4ccncc4)CC3)cc2)cc1 | 6.77%
